The supplement of paper PMC3334620
The full ranking holds about 33,000 sequences; the median of “E-score (-0.5 to 0.5)” is about -0.04, and the highest 2% start at about 0.36. Some of the results follow.

target: T1, Hmlalpha2 (UniProt P0CY09); assay: PBM E-score (8-mer binding enrichment) (E-score (-0.5 to 0.5)); higher = stronger / more preferred TF binding; most listed sequences are background and not binding sites; conditions: protein concentration: 200 nM; construct: GST-full length
T1 sequence: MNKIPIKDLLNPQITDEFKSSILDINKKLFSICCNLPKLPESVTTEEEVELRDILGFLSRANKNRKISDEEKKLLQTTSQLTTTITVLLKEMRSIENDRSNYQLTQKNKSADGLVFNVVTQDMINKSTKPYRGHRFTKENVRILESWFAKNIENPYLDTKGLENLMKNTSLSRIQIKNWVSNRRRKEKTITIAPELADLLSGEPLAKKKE
Procedure: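 Universal 'all 10-mer' protein binding microarrays (Agilent AMADID 015681) probed with GST-tagged S. cerevisiae TFs (full-length or DBD) made by in vitro transcription/translation (PURExpress), about 100-200 nM. Bound TF was detected with fluorescent anti-GST. Each ungapped 8-mer (which stands for itself and its reverse complement) is scored by the PBM enrichment score (E-score), a modified Wilcoxon-Mann-Whitney statistic from -0.5 to +0.5, computed with the Universal PBM Analysis Suite. Scale: above 0.35 generally sequence-specific binding.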

Sequence	PBM E-score
CGACACGC	0.243
ATGATGGA	-0.0342
ATCGATCG	-0.0333
AATAGCTC	-0.145
CTTATGGA	-0.263
ATCAGCGA	-0.0215
GCCCCTCA	-0.306
GGTCATAC	-0.209
AACGTGAA	0.218
CCAATAAC	0.205
CTTACTGC	0.0127
CATACCCC	-0.136
GCGACGTA	0.0408
ACCGCGAA	-0.126
GTTATCAA	0.0753
ACCGGCTG	-0.0917
ACGGAACA	0.00207
CAAGCTTC	-0.0279
CGATCTAG	-0.043
ATGGGCTC	-0.042
ACTCCGAT	-0.194
AGACCTTG	-0.00027
AGTTCTGC	0.0238
AAACCTCC	-0.19
CGCGTACG	0.32

Sequence	PBM E-score
ACTAATAA	0.193
AGACTTCG	-0.117
ACGCCTAA	0.0839
ACCCCCAA	-0.0845
CGTGAGTC	-0.235
CGCCCATC	-0.218
CAACACGC	0.367
GCTACGGA	-0.168
AAACAGCA	0.088
AACAAAGA	0.203
CTGGAGTA	-0.168
CTGTGCGA	0.00027
AAAGCGCG	0.136
GCAATATA	-0.012
ATTTCCGA	-0.11
TGTTTCAA	0.175
CTAGACCC	-0.303
AAGTCTGC	0.00573
AAGCACAC	-0.0253
ATCCCGGC	-0.268
CTATCGGA	-0.0687
CAGGCTGG	-0.182
CTAATCCC	0.0115
CGTGTAAG	0.467
TATGACCA	0.0588

Sequence	PBM E-score
GATTCCAA	-0.0677
ATACTATC	0.0717
GCGTGCCA	-0.128
CCCAGGAC	-0.231
GAAGTGTA	0.0551
CCTCCGTC	-0.172
AATACTAC	0.246
AGTAGACG	0.0433
ACGCTATC	-0.00711
GTAAGGAC	-0.0727
AAGAGCTT	-0.1
GTAACGGA	0.19
GTTTAAAC	0.41
ACAGGACG	0.126
AACTGGAG	-0.319
AGGTCTGC	-0.237
CCGGTACC	-0.272
AACGTATC	0.0379
ATAGAAAC	0.112
CCAGCAGG	-0.22
GTGCGGTA	0.0266
CTTACTCA	-0.0475
AGTAGAGC	-0.041
AGCTCAAT	0.0207
ATAATGAC	0.0211

Sequence	PBM E-score
TGTCCGAA	-0.0413
AGGTTGAG	0.026
AACTTCGC	0.0503
CTGCGCCA	-0.22
ACAGGAGC	0.0627
CTGTTTTC	0.036
AACCTCTA	-0.19
CAGTCGAC	0.0539
ATAGACCC	0.108
AGTCTGTA	0.0937
AGAGTGGC	-0.0809
GGCTCCAA	-0.214
GATGAAGA	-0.0823
ATCGCATC	-0.263
GAGCCCGC	-0.33
CCAAATCA	0.0068
GGGAACTA	0.085
GGACGTAA	0.145
CACGGAGC	0.109
ACCCCCGA	-0.0909
GCATACCA	-0.185
ACCCATGA	-0.153
ACGGATGC	0.0163
TGGATCAA	-0.028
CTTCTGTC	-0.0642

Sequence	PBM E-score
CTCTGACC	-0.259
ACATGTAC	0.412
CGCATTTC	0.0408
CGGGAAAG	-0.244
ACGGTCAT	-0.0696
ATAACGCA	0.225
TAACCACA	0.181
GTAGGTAA	0.119
TGTAAACA	0.461
CATCGCTA	0.0965
CCGGAAAG	-0.316
GGCTAACC	-0.104
GCTCGTCA	-0.0237
ACAGCTAC	0.0986
AAACTAAA	0.0747
GAAGAAAC	0.0429
CTAATGTA	0.262
AAGGATAA	0.0414
GGAAGCGA	-0.175
GCTTGACC	-0.107
ACCGGCTA	0.0209
AAAGGAGA	-0.164
ATGTCCGG	-0.141
AGAAACGC	0.121
AAAGACTC	-0.193

Sequence	PBM E-score
CCATGCCG	0.0296
GTGTTAAA	0.462
ATATTAGA	0.243
GGCAGGTA	-0.258
CCAAGGTA	-0.156
AATGGAGG	-0.219
AGATATAC	0.119
GCGACGGA	-0.215
ACAGGAGG	-0.152
ATAGAGCC	-0.152
ATATCGTA	0.149
GTTAGGTA	0.159
AAGGACAG	-0.149
CTGCGAAC	-0.0978
ACGATAAT	0.106
ATAATTAC	0.357
ACATAATG	0.226
GTCTTCCA	-0.267
CGCTATAG	-0.0998
ATCCGCAG	-0.101
GCACGTAA	0.348
GTAGTAAA	0.237
ACAACTAC	0.225
GTCTTCAC	-0.0998
CTATCAAG	-0.137

Sequence	PBM E-score
GGGGCCTA	-0.31
AAACCCCA	-0.00673
ACGCGCGC	0.306
CTATCAGA	-0.305
CTGTGGTC	-0.0843
AGCATTAA	-0.0186
TGTATTAA	0.413
ACGACCAG	0.043
AGGCTGGG	0.00399
ACCTCTAA	-0.123
CGATATTC	-0.202
AATACATG	0.482
CTGTGATA	-0.0525
ATCCGAAT	0.0965
ATAGACTG	-0.0652
CGAAACTC	-0.242
AAGGATCT	-0.17
CCGGAACG	-0.127
AGCAGGAA	-0.0372
GCAAGAGA	-0.0361
ACCGATTC	-0.224
GCTCGTAC	-0.0377
GGCGGTTA	-0.055
CATCTGAA	-0.106
GAATCATC	0.0179

Sequence	PBM E-score
AGTCAGGC	-0.107
CGTCGTCA	-0.0343
TCGAACCA	0.03
AAAGCCGA	-0.183
CCTACCTA	-0.0766
CAGAGCCC	-0.153
CCGTGGGA	-0.352
GCGCCGAA	-0.106
CATGATCC	0.0754
ACCCAGCC	-0.272
TAGTTAAA	0.31
GGCGGTCA	-0.283
AACTCATG	0.146
GAGGGTCC	-0.374
AATTGCAG	-0.181
TACTCACA	0.165
CGTATGTA	0.356
ACGGCACG	0.079
CGAGCGAA	-0.199
CGTCGTAG	-0.125
GTCGAGAC	0.116
TTGCCCAA	-0.163
AGTCCGTG	-0.126
GGCGAGAA	-0.136
CCTTGACC	-0.13

Sequence	PBM E-score
CTGAACTA	0.0184
TAGTCAGA	-0.166
CGCCCATA	-0.264
GCCGTGTA	0.432
CACATAAA	0.259
ATTGATAC	0.129
GGTGTGAC	-0.193
CAACACTC	0.166
CATTCTCG	-0.0595
CCATGGGC	-0.283
ACTGTTGC	-0.0605
GCCGACCC	-0.295
AGCTAAGA	-0.0157
GAGTCAAA	0.0265
ACGTCATC	0.0076
GGAGAGGA	-0.331
AGCAAATC	0.0306
CCAATCCG	-0.27
AGGGTCAC	-0.246
